In PMC10726135 one finds binding signal (log2 normalized intensity) data, which are given here for 73 sequences.

Some of the results follow. At the low end of the ranking the order means little. Measured with an extract: partners may take part in the binding.

For the test, the target named is T1, HNF4alpha8 (COS-7 nuclear extract) (UniProt P41235-5).
T1 sequence: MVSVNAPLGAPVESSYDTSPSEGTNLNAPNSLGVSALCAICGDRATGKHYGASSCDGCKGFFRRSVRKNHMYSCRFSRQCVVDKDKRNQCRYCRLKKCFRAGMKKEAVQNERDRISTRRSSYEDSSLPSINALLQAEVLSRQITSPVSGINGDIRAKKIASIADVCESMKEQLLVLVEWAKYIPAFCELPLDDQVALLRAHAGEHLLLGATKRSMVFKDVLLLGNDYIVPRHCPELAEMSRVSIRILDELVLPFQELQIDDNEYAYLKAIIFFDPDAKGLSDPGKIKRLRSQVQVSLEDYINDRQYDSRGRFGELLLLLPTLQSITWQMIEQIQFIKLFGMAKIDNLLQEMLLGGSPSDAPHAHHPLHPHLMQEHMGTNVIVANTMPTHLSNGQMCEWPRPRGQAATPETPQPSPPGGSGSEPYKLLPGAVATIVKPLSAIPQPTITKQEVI
Briefly: protein-binding microarray. The conditions noted are these: COS-7 nuclear extract on double-stranded Agilent 4x180k PBM; binding buffer, salt, pH and temperature not given; high values mean tight binding; double strand, one strand shown; sequences stand for … in …GCCTAGGGAGATTAGAGTATCGGTCGA
As to ACACCTGCGTGTACTAAGGTCTTAAGTGTC, the binding signal (log2 normalized intensity) came out at 0.834.
The value for CAAACTCATTTTGATCTTTGTGTACAAAGC was 1.76; that for CAGGGACACATGCCCCTTCCCTCCCTGCAA was 3.31.
Then TTCTTTGGTACTTTGAGCCAGTAAGTCTAG, with 1.94; and CCACAAACAAACAGGGTGGCTTTGATCTGG, with 0.266; and AAACCTACTTAGATCAAGATTTTCAACTTG, with -1.33.
On to GTGAAGTGGTAGGACAGGGCCCTTCACTAT, for which the binding signal (log2 normalized intensity) is -1.41.
As for TTGTGTCACCAATGGTAACTGAAAGTCATG, the binding signal (log2 normalized intensity) was -0.0656.
Then ATCTCCAAACGAGACTTTGGACTTTGGACT, with 11.9.
In the case of TGAGCCGCCAGGCGGGTTCTGCCATCTCGC, the binding signal (log2 normalized intensity) was -0.757.
Consider AATGTTATTTATCCAGCTGGGTATACTGAC, for which the binding signal (log2 normalized intensity) worked out at 1.08.
Then AAAGGCAGCCCCTTATCAGGAGAGGAGGCC, with -1.27.
Then AAGTCTGAAATCTACAGGACAGCCAGGCAG, with -1.38; and CTGGACAGGTCCAAGGTTCTCCAGGGACCC, with 1.35.
The value for TGCCTCAGTAGTAGTGAAAAATGAATAACT was -1.1.
In the case of CTGACCAGCTCCAAAGTCCGCCACTAGCAA, the binding signal (log2 normalized intensity) is 1.52.
The value for GTTTATCTGCCTGTGGATAGCTGGCATGCA was 0.0443; that for CCCAGAGGCTGGTCAGAATTCCATCCCAGG was -1.25; that for ATTAAGCAAGATATGTGCCTGCCTTATACA was 0.303.
Turning to ATTGCCAAGGGGGTGGTGAAATGGGGGAAG, the binding signal (log2 normalized intensity) is -1.31.
The value for ATTTTAGGAGCCTCCAATCAGGACAGACTG was -1.36; that for CCTTCACCAGAGCCGTCTGGTAAATTTCTA was -1.33.
Then GTGTTCACACCACACTCTCCTCCTGGCCTC, with -1.03; and ACATGACCACCTGGTTTAAGTCACTATCAA, with -1.27.
Then TTGCTGACCCCCTACATAGAGAGCAGTCTT, with 2.75.
For the sequence TGTGTTTCTCAATGTCTTTCCTGCAGAGGG, the binding signal (log2 normalized intensity) worked out at 0.718.
On to GATGGTAACCACACCAAGGGGCCCCCACTT, for which the binding signal (log2 normalized intensity) is -1.15.
In the case of CCAAGACCTTTGAAGCTTGCAACAAAGGGG, the binding signal (log2 normalized intensity) was -0.475.
Take ATATTCCAAATTCCAGCTGAAGTTCCCAGC: the binding signal (log2 normalized intensity) was -1.27.
The value for AATCTGAATTAACTCTTTACACAGTTCTGA was -0.988; that for TAGACTCCAGGCTTGTCCTTTTGACCACAG was 2.85; that for GCTCTGCATCCTTCCCTAAGCAGCTGCAGT was -1.18.
In the case of ACCTTCTACCGTACCTAGGACAAAGCAAAC, the binding signal (log2 normalized intensity) was -1.25.
In the case of AAAGTTCACCACTTTTGCAATGTTTCCAAA, the binding signal (log2 normalized intensity) was 0.374.
Then GCTGGAACAGGCTGGGACACGCCTGCCCTC, with 1.32; and GGAATGAGCAGGAACCTTGTGGTGGTGAAA, with 0.216; and ACCAGACTACCTCTTTAGGCTGGACTCTGA, with 4.7.
In the case of AGTGGACTTTGACCTTGTTTTCAATGACTA, the binding signal (log2 normalized intensity) amounted to 7.8.
Regarding GGGCCAGCAGTGCCCAAAGCCCAAGGGATG, the binding signal (log2 normalized intensity) was -1.33.
Regarding GGCGTGACCCCCACTGCCTGCCTGCCAACT, the binding signal (log2 normalized intensity) was 2.94.
Then TGTCCACCTTATCTAATGCCCCAAATGACG, with 2.66; and ATCAAGGTGGTTTCACTTCAAGATGGCATC, with 0.407; and TGTGTCAAAGGTCACTTAGTCCCTAAGTCT, with 5.26.
The value for TTCCTATGTAAACACAAGATATTATTAGAC was -0.883; that for TGCTAGAGTACTTGGACTTTAACCTTTAGA was 9.71; that for TAAATGACCTCTGCCCTTCCACCCACTTTA was 4.61.
In the case of GTCATAAGCTGTGGGATCCAACCAGAGGGA, the binding signal (log2 normalized intensity) was -1.34.
In the case of CTCTTGCTTCCTGGGATGCATTTGAAACCA, the binding signal (log2 normalized intensity) is -0.67.
The value for AAGTTCCCCGGGCAGCTGTGTTTGCAGCCG was -1.1; that for GACGCTCAGTAAATCTGCACTTTACGTAAG was -1.3.
In the case of TAGGAGGTCAGCACAAGATACAGCTTATCA, the binding signal (log2 normalized intensity) is -1.51.
Then GTCCTAAAGAGGATATCCTGGCAGTGTGGA, with 0.672; and CTGTTTATGGGTTAACAGAATGAACAGCTC, with 0.793.
With ATGCTGGTCTCCTTGCCCCACCCCCCACCC, the binding signal (log2 normalized intensity) was 7.48.
Then ATCCTGCCTCCATTAATTAACCTTTGAGCT, with 6.76; and GCTGAGGTTAGAATCCTTATCTGGTGTGCT, with -0.717; and GAGCAAATACTTATGATATGAAGCATTGCT, with -1.43.
The value for GGCTGGCCCTGAGCCAAGGGAGCACAACCC was -1.31; that for ATCTTTTCTTTTAAAAAGCTGCAATGGCTT was -1.
Then GTGTCAGCATCTAAACCTCTGCACACAGGA, with -1.2; and AACATTACTAACTGGACTTTATCTACCATT, with 2.73.
Turning to CGGATCCTCCCAGCCTGGAGGAGGGCGAGG, the binding signal (log2 normalized intensity) was -1.28.
With GATAGCCTTTGCCTCCACCTTCTCTCCCAC, the binding signal (log2 normalized intensity) worked out at 0.15.
Then AGAATTCCAGAGATGCCAGGAGAGCCGAAG, with -1.33; and GGCAAAAGAGATAGCGAGAAGGCAGGTAGA, with -1.3.
Turning to CAGCAATCACCTACCCCCAGATTCTCTGTT, the binding signal (log2 normalized intensity) was determined as 2.47.
TGATGACTTTTGACCCCAGGGGAAACTCCA: the binding signal (log2 normalized intensity) was 5.06.
As for TGTACAATGGAAGTGAGTCAGTTCTGTCCA, the binding signal (log2 normalized intensity) came out at 0.777.
Take CTAACCCCTAACCCAGTGAATTCCTTCCTT: the binding signal (log2 normalized intensity) came out at 1.99.
For the sequence GGAGAGAGTTTGGCCCCAGTTCCCATGGAC, the binding signal (log2 normalized intensity) was determined as 1.45.
As for TCAGTAAATCTTAGAGAACACTCCTCCCCT, the binding signal (log2 normalized intensity) stood at 3.29.
Then GGACTTGATCCAGGGCAAAGGTCATAATTT, with 7.95; and GGTGAGCAGAGGGAGGACAAAGTTCTGTCC, with 1.44.
